Experimental data from the supplement of paper PMC8728848.
This is one part of the list.

Columns and labels:
Test in all cases: glycan array binding signal (z-score within array); higher = stronger binding
Details in all cases: glycan notation: IUPAC condensed, linker removed
[1] = biological target: Gal(b1-4)GlcNAc(b1-6)Gal(b1-4)GlcNAc
In short: (§1)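 Arrays were curated from the Consortium for Functional Glycomics database, 3228 in total, and kept only where the protein sequence was available. Binding is expressed as a within-array Z-score. This score was averaged across arrays of the same protein sequence at different concentrations or buffers and across linkers, and negative values can be read as non-binding.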

[2] = biological target: Gal(b1-4)GlcNAc(b1-6)Gal(b1-4)GlcNAc(b1-6)GalNAc
In short: as §1

[3] = biological target: Gal(b1-4)GlcNAc(b1-6)GalNAc
In short: as §1

[4] = biological target: Gal(b1-4)GlcNAc(b1-6)[Gal(b1-3)]GalNAc
In short: as §1

Gal3S(b1-3)GalNAc = biological target: Gal3S(b1-3)GalNAc
In short: as §1

Gal3S(b1-3)GlcNAc = biological target: Gal3S(b1-3)GlcNAc
In short: as §1

[5] = biological target: Gal3S(b1-3)[Fuc(a1-4)]GlcNAc
In short: as §1

Gal3S(b1-4)Glc = biological target: Gal3S(b1-4)Glc
In short: as §1

Gal3S(b1-4)Glc6S = biological target: Gal3S(b1-4)Glc6S
In short: as §1

Gal3S(b1-4)GlcNAc = biological target: Gal3S(b1-4)GlcNAc
In short: as §1

Gal3S(b1-4)GlcNAc6S = biological target: Gal3S(b1-4)GlcNAc6S
In short: as §1

[6] = biological target: Gal3S(b1-4)[Fuc(a1-3)]Glc
In short: as §1

Gal3S4S(b1-4)GlcNAc = biological target: Gal3S4S(b1-4)GlcNAc
In short: as §1

Gal3S6S(b1-4)GlcNAc = biological target: Gal3S6S(b1-4)GlcNAc
In short: as §1

Gal3S6S(b1-4)GlcNAc6S = biological target: Gal3S6S(b1-4)GlcNAc6S
In short: as §1

Gal4S(b1-4)GlcNAc = biological target: Gal4S(b1-4)GlcNAc
In short: as §1

Gal4S6S(b1-4)GlcNAc = biological target: Gal4S6S(b1-4)GlcNAc
In short: as §1

Gal6S(b1-4)Glc = biological target: Gal6S(b1-4)Glc
In short: as §1

Gal6S(b1-4)Glc6S = biological target: Gal6S(b1-4)Glc6S
In short: as §1

Gal6S(b1-4)GlcNAc = biological target: Gal6S(b1-4)GlcNAc
In short: as §1

Gal6S(b1-4)GlcNAc6S = biological target: Gal6S(b1-4)GlcNAc6S
In short: as §1

GalNAc(a1-3)Gal = biological target: GalNAc(a1-3)Gal
In short: as §1

GalNAc(a1-3)GalNAc = biological target: GalNAc(a1-3)GalNAc
In short: as §1

GalNAc(b1-3)Gal = biological target: GalNAc(b1-3)Gal
In short: as §1

[7] = biological target: GalNAc(b1-3)Gal(a1-4)Gal(b1-4)GlcNAc
In short: as §1

[8] = biological target: GalNAc(b1-3)Gal(a1-4)Gal(b1-4)GlcNAc(b1-3)Gal(b1-4)Glc
In short: as §1

GalNAc(b1-3)GalNAc = biological target: GalNAc(b1-3)GalNAc
In short: as §1

GalNAc(b1-4)GlcNAc = biological target: GalNAc(b1-4)GlcNAc
In short: as §1

[9] = biological target: GalNAc(b1-4)GlcNAc(b1-2)Man(a1-3)[GalNAc(b1-4)GlcNAc(b1-2)Man(a1-6)]Man(b1-4)GlcNAc(b1-4)GlcNAc
In short: as §1

Glc(a1-4)Glc = biological target: Glc(a1-4)Glc
In short: as §1

Glc(a1-6)Glc(a1-6)Glc = biological target: Glc(a1-6)Glc(a1-6)Glc
In short: as §1

Glc(b1-4)Glc = biological target: Glc(b1-4)Glc
In short: as §1

Glc(b1-6)Glc = biological target: Glc(b1-6)Glc
In short: as §1

GlcA(b1-3)Gal = biological target: GlcA(b1-3)Gal
In short: as §1

GlcA(b1-3)GlcNAc = biological target: GlcA(b1-3)GlcNAc
In short: as §1

GlcA(b1-6)Gal = biological target: GlcA(b1-6)Gal
In short: as §1

[10] = biological target: GlcNAc(a1-3)Gal(b1-4)GlcNAc
In short: as §1

[11] = biological target: GlcNAc(a1-4)Gal(b1-3)GlcNAc
In short: as §1

[12] = biological target: GlcNAc(a1-4)Gal(b1-4)GalNAc
In short: as §1

[13] = biological target: GlcNAc(a1-4)Gal(b1-4)GlcNAc
In short: as §1

[14] = biological target: GlcNAc(a1-4)Gal(b1-4)GlcNAc(b1-3)Gal(b1-4)Glc
In short: as §1

[15] = biological target: GlcNAc(a1-4)Gal(b1-4)GlcNAc(b1-3)Gal(b1-4)GlcNAc
In short: as §1

[16] = biological target: GlcNAc(a1-4)Gal(b1-4)GlcNAc(b1-3)Gal(b1-4)GlcNAc(b1-3)Gal(b1-4)GlcNAc
In short: as §1

[17] = biological target: GlcNAc(a1-4)Gal(b1-4)GlcNAc(b1-3)Gal(b1-4)[Fuc(a1-3)]GlcNAc(b1-3)Gal(b1-4)[Fuc(a1-3)]GlcNAc
In short: as §1

[18] = biological target: GlcNAc(a1-6)Gal(b1-4)GlcNAc
In short: as §1

[19] = biological target: GlcNAc(b1-2)Gal(b1-3)GalNAc
In short: as §1

[20] = biological target: GlcNAc(b1-2)Man(a1-3)[GlcNAc(b1-2)Man(a1-6)]Man(b1-4)GlcNAc(b1-4)GlcNAc
In short: as §1

[21] = biological target: GlcNAc(b1-2)Man(a1-3)[GlcNAc(b1-2)Man(a1-6)]Man(b1-4)GlcNAc(b1-4)[Fuc(a1-6)]GlcNAc
In short: as §1

GlcNAc(b1-3)Gal = biological target: GlcNAc(b1-3)Gal
In short: as §1

[22] = biological target: GlcNAc(b1-3)Gal(b1-3)GalNAc
In short: as §1

GlcNAc(b1-3)Gal(b1-4)Glc = biological target: GlcNAc(b1-3)Gal(b1-4)Glc
In short: as §1

[23] = biological target: GlcNAc(b1-3)Gal(b1-4)GlcNAc
In short: as §1

[24] = biological target: GlcNAc(b1-3)Gal(b1-4)GlcNAc(b1-3)Gal(b1-4)GlcNAc
In short: as §1

GlcNAc(b1-3)GalNAc = biological target: GlcNAc(b1-3)GalNAc
In short: as §1

GlcNAc(b1-3)Man = biological target: GlcNAc(b1-3)Man
In short: as §1

[25] = biological target: GlcNAc(b1-3)[GlcNAc(b1-4)][GlcNAc(b1-6)]GlcNAc
In short: as §1

[26] = biological target: GlcNAc(b1-3)[GlcNAc(b1-6)]Gal(b1-4)GlcNAc
In short: as §1

[27] = biological target: GlcNAc(b1-3)[GlcNAc(b1-6)]GalNAc
In short: as §1

[28] = biological target: GlcNAc(b1-4)Gal(b1-4)GlcNAc
In short: as §1

GlcNAc(b1-4)GlcNAc = biological target: GlcNAc(b1-4)GlcNAc
In short: as §1

B1: Neuropilin-1 (Rattus norvegicus), Q9QWJ9 (protein)
chain: MERGLPLLCATLALALALAGAFRSDKCGGTIKIENPGYLTSPGYPHSYHPSEKCEWLIQAPEPYQRIMINFNPHFDLEDRDCKYDYVEVIDGENEGGRLWGKFCGKIAPSPVVSSGPFLFIKFVSDYETHGAGFSIRYEIFKRGPECSQNYTAPTGVIKSPGFPEKYPNSLECTYIIFAPKMSEIILEFESFDLEQDSNPPGGVFCRYDRLEIWDGFPEVGPHIGRYCGQKTPGRIRSSSGILSMVFYTDSAIAKEGFSANYSVLQSSISEDFKCMEALGMESGEIHSDQITASSQYGTNWSVERSRLNYPENGWTPGEDSYREWIQVDLGLLRFVTAVGTQGAISKETKKKYYVKTYRVDISSNGEDWITLKEGNKAIIFQGNTNPTDVVFGVFPKPLITRFVRIKPASWETGISMRFEVYGCKITDYPCSGMLGMVSGLISDSQITASNQGDRNWMPENIRLVTSRTGWALPPSPHPYINEWLQVDLGDEKIVRGVIIQGGKHRENKVFMRKFKIAYSNNGSDWKMIMDDSKRKAKSFEGNNNYDTPELRAFTPLSTRFIRIYPERATHSGLGLRMELLGCEVEVPTAGPTTPNGNPVDECDDDQANCHSGTGDDFQLTGGTTVLATEKPTIIDSTIQSEFPTYGFNCEFGWGSHKTFCHWEHDSHAQLRWRVLTSKTGPIQDHTGDGNFIYSQADENQKGKVARLVSPVVYSQSSAHCMTFWYHMSGSHVGTLRVKLHYQKPEEYDQLVWMVVGHQGDHWKEGRVLLHKSLKLYQVIFEGEIGKGNLGGIAVDDISINNHIPQEDCAKPTDLDKKNTEIKIDETGSTPGYEEGKGDKNISRKPGNVLKTLDPILITIIAMSALGVLLGAVCGVVLYCACWHNGMSERNLSALENYNFELVDGVKLKKDKLNPQSNYSEA
- glycan array binding signal (z-score) [1]: -0.253
- glycan array binding signal (z-score) [2]: -0.128
- glycan array binding signal (z-score) [3]: -0.12
- glycan array binding signal (z-score) [4]: -0.299
- glycan array binding signal (z-score) (Gal3S(b1-3)GalNAc): -0.455
- glycan array binding signal (z-score) (Gal3S(b1-3)GlcNAc): -0.063
- glycan array binding signal (z-score) [5]: -0.223
- glycan array binding signal (z-score) (Gal3S(b1-4)Glc): -0.376
- glycan array binding signal (z-score) (Gal3S(b1-4)Glc6S): -0.212
- glycan array binding signal (z-score) (Gal3S(b1-4)GlcNAc): -0.211
- glycan array binding signal (z-score) (Gal3S(b1-4)GlcNAc6S): -0.201
- glycan array binding signal (z-score) [6]: -0.257
- glycan array binding signal (z-score) (Gal3S4S(b1-4)GlcNAc): -0.43
- glycan array binding signal (z-score) (Gal3S6S(b1-4)GlcNAc): -0.279
- glycan array binding signal (z-score) (Gal3S6S(b1-4)GlcNAc6S): -0.271
- glycan array binding signal (z-score) (Gal4S(b1-4)GlcNAc): -0.185
- glycan array binding signal (z-score) (Gal4S6S(b1-4)GlcNAc): -0.1
- glycan array binding signal (z-score) (Gal6S(b1-4)Glc): -0.192
- glycan array binding signal (z-score) (Gal6S(b1-4)Glc6S): 0.162
- glycan array binding signal (z-score) (Gal6S(b1-4)GlcNAc): -0.348
- glycan array binding signal (z-score) (Gal6S(b1-4)GlcNAc6S): -0.113
- glycan array binding signal (z-score) (GalNAc(a1-3)Gal): -0.081
- glycan array binding signal (z-score) (GalNAc(a1-3)GalNAc): -0.161
- glycan array binding signal (z-score) (GalNAc(b1-3)Gal): -0.31
- glycan array binding signal (z-score) [7]: -0.33
- glycan array binding signal (z-score) [8]: -0.285
- glycan array binding signal (z-score) (GalNAc(b1-3)GalNAc): -0.27
- glycan array binding signal (z-score) (GalNAc(b1-4)GlcNAc): -0.273
- glycan array binding signal (z-score) [9]: 1.98
- glycan array binding signal (z-score) (Glc(a1-4)Glc): -0.289
- glycan array binding signal (z-score) (Glc(a1-6)Glc(a1-6)Glc): -0.431
- glycan array binding signal (z-score) (Glc(b1-4)Glc): -0.28
- glycan array binding signal (z-score) (Glc(b1-6)Glc): -0.322
- glycan array binding signal (z-score) (GlcA(b1-3)Gal): -0.305
- glycan array binding signal (z-score) (GlcA(b1-3)GlcNAc): -0.308
- glycan array binding signal (z-score) (GlcA(b1-6)Gal): -0.148
- glycan array binding signal (z-score) [10]: -0.264
- glycan array binding signal (z-score) [11]: -0.133
- glycan array binding signal (z-score) [12]: 0.754
- glycan array binding signal (z-score) [13]: -0.307
- glycan array binding signal (z-score) [14]: -0.275
- glycan array binding signal (z-score) [15]: -0.154
- glycan array binding signal (z-score) [16]: -0.167
- glycan array binding signal (z-score) [17]: 2.61
- glycan array binding signal (z-score) [18]: -0.181
- glycan array binding signal (z-score) [19]: -0.349
- glycan array binding signal (z-score) [20]: -0.236
- glycan array binding signal (z-score) [21]: -0.248
- glycan array binding signal (z-score) (GlcNAc(b1-3)Gal): -0.372
- glycan array binding signal (z-score) [22]: 0.03
- glycan array binding signal (z-score) (GlcNAc(b1-3)Gal(b1-4)Glc): -0.232
- glycan array binding signal (z-score) [23]: -0.32
- glycan array binding signal (z-score) [24]: -0.302
- glycan array binding signal (z-score) (GlcNAc(b1-3)GalNAc): -0.076
- glycan array binding signal (z-score) (GlcNAc(b1-3)Man): -0.225
- glycan array binding signal (z-score) [25]: -0.236
- glycan array binding signal (z-score) [26]: -0.354
- glycan array binding signal (z-score) [27]: -0.27
- glycan array binding signal (z-score) [28]: -0.238
- glycan array binding signal (z-score) (GlcNAc(b1-4)GlcNAc): -0.282
